Measurements taken from PubChem BioAssay AID624417 (National Center for Advancing Translational Sciences (NCATS), 2012).
The whole screen tested about 410,000 compounds, of which about 6,400 (1.6%) were called active. The inconclusive results got no clear call from the source; some entries with a clear call stand among them for comparison. Calls come from the whole dose curve; as a rule, active = well fitted inhibition curve with a large enough effect; inconclusive = small, poorly fitted or top-dose-only effect; inactive = no such curve, though single readings can be large or run the other way. Potencies of inconclusive entries are doubtful fits and often do not repeat.

Biological target: Glucagon-like peptide 1 receptor (Homo sapiens) (UniProt P43220)
Test: qHTS of GLP-1 Receptor Inverse Agonists (Inhibition Mode); note: nearly all actives have a fitted effect of over 55% in size
Conditions: HEK293 GLP-1R CRE-luciferase, luminescence, 24 h, GLP-1R form is constitutively active; activity change, negative = inhibition: at 38.3 µM (top of the series) unless noted
Method in brief: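 HEK293 cells stably co-expressing a cAMP-responsive luciferase reporter and constitutively active GLP-1R were seeded, incubated 12 h, then exposed to compounds for 24 h at 37 C. Luminescence was read 12 min after detection reagent; inverse agonists lower signal.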
% is set by controls: 0 for no effect and ±100 for the full control effect; potency is the fitted concentration of half-maximal effect; tags give direction and shape of the fitted curve.

Sequence of UniProt P43220 (P43220 whole entry, looked up): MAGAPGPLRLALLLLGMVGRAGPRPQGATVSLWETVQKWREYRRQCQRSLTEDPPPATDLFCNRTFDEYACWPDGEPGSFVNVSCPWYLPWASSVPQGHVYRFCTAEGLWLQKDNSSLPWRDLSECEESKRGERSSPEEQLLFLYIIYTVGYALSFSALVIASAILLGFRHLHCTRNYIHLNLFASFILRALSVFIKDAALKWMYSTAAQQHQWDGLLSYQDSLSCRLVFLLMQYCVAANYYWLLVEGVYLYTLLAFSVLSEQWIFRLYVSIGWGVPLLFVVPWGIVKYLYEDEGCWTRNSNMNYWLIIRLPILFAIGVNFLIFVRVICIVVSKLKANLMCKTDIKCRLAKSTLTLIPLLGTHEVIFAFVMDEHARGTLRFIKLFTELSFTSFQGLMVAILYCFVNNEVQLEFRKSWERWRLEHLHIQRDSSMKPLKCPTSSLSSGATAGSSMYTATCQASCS

Potency, inconclusive:
Cc1ccc(C)c(S(=O)(=O)N(C(=O)c2ccncc2)c2ccc(OC(=O)c3ccncc3)cc2)c1 11.2 µM [inhibitor, partial curve, poor fit]
COC(=O)[C@]12CCCCC=C1N(Cc1ccccc1)C(=O)[C@H](CC(=O)NCCc1ccccc1OC)C2 10 µM [inhibitor, single point]
C=CCOC(=O)C1=C(C)NC(=O)NC1c1cc(Cl)cc(Cl)c1OC (configuration not stated) 3.16 µM [inhibitor, partial curve, poor fit]
N/C(=N\S(=O)(=O)c1cc(C(F)(F)F)cc(C(F)(F)F)c1)c1cccs1 10 µM [inhibitor, partial curve, poor fit]
CC(=O)c1ccc(-c2c(C)cc3oc(=O)cc(-c4ccccc4)c3c2C)cc1 28.2 µM [inhibitor, single point]
CN(C)S(=O)(=O)c1cccc(NC(=O)COc2ccc3ccccc3c2)c1 10 µM [inhibitor, partial curve, poor fit]
C[C@@H](CSc1ccc(Br)cc1)CN1CC[C@H](NC(=O)OCc2ccccc2)CCC1=O 14.1 µM [inhibitor, partial curve, poor fit]
Cc1c(Cl)cccc1-n1c(CCC(=O)O)ccc1-c1cccs1 12.6 µM [inhibitor, single point]
O=C1C(Cc2ccccc2)C(c2ccccc2)N1c1ccccc1 (configuration not stated) 2.82 µM [inhibitor, full curve, poor fit]
CCC(C(=O)N1CCN(c2cc(Cl)ccc2C)CC1)n1nc(C)n2c(cc3occc32)c1=O (configuration not stated) 8.91 µM [inhibitor, partial curve, poor fit]
O=[N+]([O-])c1ccccc1-c1cc(-c2cc(Cl)ccc2O)n[nH]1 11.2 µM [inhibitor, partial curve, poor fit]
O=C(NC(=S)N1CCN(c2nc(-c3ccccc3)cs2)CC1)c1cncc(Br)c1 15.8 µM [inhibitor, partial curve, poor fit]
O=C(CN1CC(c2ccccc2)CC1=O)N/N=C/c1cc(Br)ccc1O (configuration not stated) 7.08 µM [inhibitor, partial curve, poor fit]
O=C(c1ccc(Oc2ccc([N+](=O)[O-])cc2)cc1)N1CCCCCC1 8.91 µM [inhibitor, partial curve]
COC(=O)C1=C(C)N(C)C(C)=C(C(=O)OC)C1c1cccc(Br)c1 7.94 µM [inhibitor, partial curve, poor fit]
Cc1nc(C(=O)N2CCCC(C(=O)c3ccc(Cl)cc3)C2)cs1 (configuration not stated) 2 µM [inhibitor, full curve, poor fit]
O=C(OCc1ccc(Br)cc1)c1cccc(S(=O)(=O)N2CCCC2)c1 28.2 µM [inhibitor, single point]
CC(C)OC(=O)c1cc2c(ccn2C)n1CC(=O)N1CCC(Cc2ccccc2)CC1 10 µM [inhibitor, partial curve, poor fit]
Cc1ccccc1S(=O)(=O)Cc1ccc(C(=O)NC2CCCCCC2)o1 11.2 µM [inhibitor, partial curve, poor fit]
CCN(Cc1ccccc1)C(=O)C1CCN(C/C(C)=C/c2ccccc2)CC1 12.6 µM [inhibitor, partial curve, poor fit]
CC(C)(C)c1nc(NC(=O)Nc2ccccc2)sc1Br 11.2 µM [inhibitor, partial curve, poor fit]
CCCCCCNC(=O)CCc1nc2cccnc2n1Cc1ccc(OC)cc1 12.6 µM [inhibitor, partial curve, poor fit]
O=C(NCC(c1ccco1)N1CCN(c2ccccc2F)CC1)c1cccs1 (configuration not stated) 11.2 µM [inhibitor, single point]
CCCCN(C)C(=O)c1sc(=O)n(Cc2ccc(Cl)c(Cl)c2)c1C 28.2 µM [inhibitor, single point]
COc1ccc(NC(c2ccc(F)cc2)c2nnc(-c3ccccc3Cl)o2)cc1Cl (configuration not stated) 8.91 µM [inhibitor, partial curve, poor fit]
Cc1cc2nc(-c3ccco3)c(Cc3cccc(F)c3)n2c(C)c1Br 28.2 µM [inhibitor, single point]
Cc1ccc2c(c1)sc(=NC(=O)c1cccs1)n2C 1.12 µM [inhibitor, full curve, poor fit]
Cc1ccc(-c2csc3nc[nH]c(=O)c23)c(C)c1 10 µM [inhibitor, partial curve, poor fit]
COC(=O)c1ccc2c(c1)N(Cc1ccccc1F)C(=O)c1ccccc1S2=O (configuration not stated) 10 µM [inhibitor, single point]
O=C(CN1C(=O)NC(c2ccccc2)(c2ccccc2)C1=O)NCC(=O)Nc1ccc(F)cc1 22.4 µM [inhibitor, partial curve, poor fit]
O=C(NCc1ccccc1)C(c1ccc(O)cc1)N(C(=O)Cn1nnc(-c2cccs2)n1)c1ccc2c(c1)OCCO2 (configuration not stated) 6.31 µM [inhibitor, partial curve]
Cc1sc2nc(CN(Cc3cccs3)C(=O)NC3CCCCC3)[nH]c(=O)c2c1C 12.6 µM [inhibitor, partial curve, poor fit]
Cc1ccc(S(=O)(=O)NCCC(=O)NC(C)c2ccccc2)cc1 (configuration not stated) 0.501 µM [inhibitor, full curve, poor fit]
Cc1ccc(C)c(N2CCN(C(=O)CCCCCn3c(=S)[nH]c4ccc(N5CCOCC5)cc4c3=O)CC2)c1 3.55 µM [inhibitor, full curve, poor fit]
CN(CC(=O)Nc1ccc(F)cc1)C(=O)c1ccc(-c2ccc(F)cc2)o1 28.2 µM [inhibitor, single point]
CCc1ccccc1NC(=O)CN1CCN(CC(=O)Nc2ccc3c(c2)OC2(CCCCC2)O3)CC1 0.501 µM [inhibitor, full curve, poor fit]
Clc1ccc(-c2csc(N/N=C/c3ccc4c(c3)OCO4)n2)cc1 10 µM [inhibitor, single point]
CNC(=O)Nc1ccc2snnc2c1 31.6 µM [inhibitor, single point]
CC1=NN(C(=O)c2ccccc2F)C(O)(c2ccc(Cl)cc2)C1 (configuration not stated) 2.24 µM [inhibitor, full curve, poor fit]
CCCNC(=O)C1(C)CCN(Cc2ccc(Cl)c(Cl)c2)C1 (configuration not stated) 28.2 µM [inhibitor, single point]
CC(C)CC(OC(=O)CC1Sc2ccccc2NC1=O)C(=O)NC1CCCC1 (configuration not stated) 7.94 µM [inhibitor, partial curve, poor fit]
O=[N+]([O-])c1ccccc1-c1ccc(C(=S)N2CCCCC2)o1 12.6 µM [inhibitor, single point]
Cc1ccc2nc(NC(=O)CNS(=O)(=O)c3ccc(Br)s3)sc2c1 28.2 µM [inhibitor, single point]
COc1ccc(/C=C/C(=O)N(C)CC(=O)Nc2cccc(F)c2)cc1S(=O)(=O)N1CCCCC1 12.6 µM [inhibitor, partial curve, poor fit]
CCc1ccc(NS(=O)(=O)c2c(C(=O)N3CCCCCC3)c(C)n(C)c2C)cc1 10 µM [inhibitor, partial curve]
COc1ccc(NC(=O)CN(C)C(=O)c2cn(-c3ccccc3)nc2-c2ccc(OC)cc2)cc1 22.4 µM [inhibitor, partial curve, poor fit]

Potency, active:
CC1(C)CC2CC(C)(CN2C(=O)c2cc(-c3ccccc3)on2)C1 (configuration not stated) 2.82 µM

Activity change, negative = inhibition, inactive:
CC(=O)N(/N=C1\Sc2ccccc2C1=O)c1ccccc1C 0%
COC(=O)C1CCN(C(=O)COc2ccc(N(C)S(=O)(=O)c3ccc(C)cc3)cc2)CC1 11.7%
CCCNC(=O)N(C)C[C@H]1Oc2cc(Br)ccc2S(=O)(=O)N([C@@H](C)CO)C[C@@H]1C 11.3%
Cc1ccc(CN2CC(C(=O)N3CCN(S(=O)(=O)c4cc(C)ccc4C)CC3)CC2=O)cc1 (configuration not stated) -23.8%
CCn1cc(C(=O)OCC(=O)Nc2cc(Cl)ccc2OC)c(=O)c2ccc(C)nc21 5.41%
Cc1ccc(-n2c(C)nn(CCOc3ccccc3)c2=O)cc1 -2.83%
Cc1ccc(C)c(-c2csc(-c3c(N)c(C(=O)c4ccc5c(c4)OCO5)n4ccccc34)n2)c1 13.3%
Cc1c(C(N)=O)nnn1-c1ccc(Br)cc1 10.3%
COc1ccc(C(=S)N2CCC(C(N)=O)CC2)cc1Br 6.7%
COc1ccc(CCNC(=O)Cn2ncc3c(C)n(Cc4ccccc4F)c(C)c3c2=O)cc1OC 0.808%
COc1ccc(CCNC(=O)Cn2nc(C)n3c(cc4occc43)c2=O)cc1OC 10.3%
Cc1oc(-c2ccc(C(=O)NCc3ccc(N(C)C)cc3)cc2)nc1COc1ccccc1 0.543%
Cn1ncn2c(=O)c3c(nc12)-c1ccccc1CC31CCCC1 4.85%
Cn1cc(S(=O)(=O)N2CCCCC2)cc1C(=O)N1CCN(c2ccc(F)cc2)CC1 -8.61%
O=C1N/C(=C/c2ccc(N3CCOCC3)o2)C(=O)N1c1cccc(Cl)c1 5.3%
